In article PMC4336329 (PLoS ONE, 2015):
In all, about 310,000 compounds went through this assay and about 2,200 (0.71%) showed an effect of 50% or more. The effect is printed as a negative number. This is one part of the list.

Biological target: human ether-à-go-go-related gene (hERG) potassium channel (human, UniProt Q12809)
Experiment: primary screen, population patch clamp on CHO cells stably expressing hERG

human ether-à-go-go-related gene (hERG) potassium channel, sequence (Q12809 whole entry, looked up): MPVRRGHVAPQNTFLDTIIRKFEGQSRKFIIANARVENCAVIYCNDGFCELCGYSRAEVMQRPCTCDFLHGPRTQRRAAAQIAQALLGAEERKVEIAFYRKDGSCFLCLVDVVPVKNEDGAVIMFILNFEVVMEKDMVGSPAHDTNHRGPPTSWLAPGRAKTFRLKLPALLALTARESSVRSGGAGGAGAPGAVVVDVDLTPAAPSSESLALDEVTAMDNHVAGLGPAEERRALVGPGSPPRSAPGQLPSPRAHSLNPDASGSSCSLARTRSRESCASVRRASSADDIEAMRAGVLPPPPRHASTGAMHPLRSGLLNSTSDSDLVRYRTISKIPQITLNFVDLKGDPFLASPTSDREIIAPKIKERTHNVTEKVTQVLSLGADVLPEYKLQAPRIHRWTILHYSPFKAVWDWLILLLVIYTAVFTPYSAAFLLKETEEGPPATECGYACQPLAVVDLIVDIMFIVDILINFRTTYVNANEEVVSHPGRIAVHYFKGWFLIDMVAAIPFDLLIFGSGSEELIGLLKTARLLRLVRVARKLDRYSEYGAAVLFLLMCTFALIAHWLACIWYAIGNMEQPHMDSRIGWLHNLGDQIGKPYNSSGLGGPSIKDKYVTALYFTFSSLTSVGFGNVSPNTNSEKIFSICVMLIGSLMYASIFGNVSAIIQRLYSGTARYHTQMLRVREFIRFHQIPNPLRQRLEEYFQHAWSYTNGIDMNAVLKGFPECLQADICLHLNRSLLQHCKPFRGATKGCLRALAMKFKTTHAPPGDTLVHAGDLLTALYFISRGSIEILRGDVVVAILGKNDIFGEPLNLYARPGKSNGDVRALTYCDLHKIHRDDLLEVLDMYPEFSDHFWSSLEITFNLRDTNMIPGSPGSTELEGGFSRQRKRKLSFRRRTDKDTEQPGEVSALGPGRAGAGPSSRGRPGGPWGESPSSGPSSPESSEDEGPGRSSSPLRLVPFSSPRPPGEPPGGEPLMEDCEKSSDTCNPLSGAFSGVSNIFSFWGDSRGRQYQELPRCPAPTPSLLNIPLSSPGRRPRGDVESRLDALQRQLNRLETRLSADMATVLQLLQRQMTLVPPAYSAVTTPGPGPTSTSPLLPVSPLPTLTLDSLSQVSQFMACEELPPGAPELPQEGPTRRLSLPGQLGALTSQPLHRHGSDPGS

First: CSc1ccccc1-c1nnc(-c2ccc(C)cc2)o1
Second: Cc1ccc(S(=O)(=O)c2nc(-c3ccccc3)oc2NCCN2CCOCC2)cc1
The “hERG current change (%, negative = inhibition) at 1uM” value of the first is higher: 7.28% for the first, 4.83% for the second.

First: CCN(CC)c1ccc(/C=N/n2c(=S)[nH]nc(C)c2=O)cc1
Second: CCN(CC)CC#Cc1ccc(C)cc1.Cl
The “hERG current change (%, negative = inhibition) at 1uM” value of the first is lower: -4.27% for the first, 10.9% for the second.

Compared with C=CCN(c1ccccc1)S(=O)(=O)c1cccc(C(=O)Nc2nnc(SCC)s2)c1, Cc1nnc(SCc2cccc(Oc3ccccc3)c2)n1N is lower in “hERG current change (%, negative = inhibition) at 1uM” value: 7.8% for the first, -8.9% for the second.

Compared with CC1=C(C#N)C(c2cccnc2)C2=C(CC(c3ccc(Cl)cc3)CC2=O)N1 (centres unmarked), O=C1NC(=S)S/C1=C/c1ccc(Oc2cnccn2)cc1 is higher in “hERG current change (%, negative = inhibition) at 1uM” value: 9.05% for the first, 11.6% for the second.

Going from Cc1nn(C)cc1/C=C/C(=O)c1ccc(O)cc1 to CC(=O)Nc1cc2nc(C)n(Cc3ccc([N+](=O)[O-])cc3)c2nc1C, the “hERG current change (%, negative = inhibition) at 1uM” value rises from 12.9% to 14.2%.

Going from COc1cc(C(=O)Nc2ccc(S(=O)(=O)Nc3ncccn3)cc2)c([N+](=O)[O-])cc1OC to COc1cccc(NC(=O)CN(C)S(=O)(=O)c2ccc(C)cc2)c1, the “hERG current change (%, negative = inhibition) at 1uM” value falls from 12% to 6.84%.

Compared with CCOC(=O)/C(C#N)=C/Nc1ccccc1OC(F)(F)F, C=CC(=O)N1c2ccccc2Sc2ccc(NC(=O)OCC)cc21 is higher in “hERG current change (%, negative = inhibition) at 1uM” value: 4.69% for the first, 8.8% for the second.

First: O=S1(=O)CC2(N3CCOCC3)CCCCC21 (centres unmarked)
Second: Cc1ccc(S(=O)(=O)N2CCOCC2)cc1C(=O)NCC1CCCO1 (centres unmarked)
The “hERG current change (%, negative = inhibition) at 1uM” value of the first is lower: -6.93% for the first, 10% for the second.

Going from Cc1cccc(C(=O)NCc2nnc(SCC(=O)NC3CCCC3)n2C)c1 to O=C(CSc1nc(-c2cccs2)nc2ccccc12)NC1CCS(=O)(=O)C1 (centres unmarked), the “hERG current change (%, negative = inhibition) at 1uM” value rises from 11.2% to 17.3%.

First: CCOC(=O)C1(Cc2cccc(OC)c2)CCN(Cc2ccc(OC)c(OC)c2)CC1
Second: COc1ccc(OCc2cc(C(=O)N3CCCC3)no2)c2ccccc12
The “hERG current change (%, negative = inhibition) at 1uM” value of the first is lower: -24.9% for the first, 9.48% for the second.

Compared with COc1ccc(N2CCN(C(=O)CSc3nnc(-c4cc5ccccc5cc4O)n3C)CC2)cc1, COc1ccc(CC(=O)NCc2ccc3c(c2)cc(C)n3C)cc1 is higher in “hERG current change (%, negative = inhibition) at 1uM” value: -11.4% for the first, 12.4% for the second.

First: O=C(NCC(=O)N(c1cccc(F)c1)C(C(=O)NCC1CCCO1)c1ccccc1)c1ccco1 (centres unmarked)
Second: O=C(Cc1ccccc1)NNC1CC(=O)N(c2ccc(Oc3ccccc3)cc2)C1=O (centres unmarked)
The “hERG current change (%, negative = inhibition) at 1uM” value of the first is lower: 8.81% for the first, 9.6% for the second.

Going from O=C(COc1ccc(Cl)cc1Cl)Nc1ccccc1F to O=C(NNC(=O)C1CC(c2cccnc2)=NO1)Nc1ccccc1F (centres unmarked), the “hERG current change (%, negative = inhibition) at 1uM” value falls from 14.6% to 7.04%.

First: CCOc1ccc(Oc2nc(NCC(C)C)nc(N(C)C)n2)nn1
Second: COc1ccc(OC)c(N/C(N)=N/c2nc(C)cc(C)n2)c1
The “hERG current change (%, negative = inhibition) at 1uM” value of the first is higher: 14% for the first, -26.5% for the second.

Compared with N/C(=N\OC(=O)CC1CCCCC1)c1ccncc1, O=C(Nc1ncccc1O)c1ccc(Cl)c(S(=O)(=O)N2CCCCCC2)c1 is lower in “hERG current change (%, negative = inhibition) at 1uM” value: 12.3% for the first, -23.1% for the second.

Compared with NS(=O)(=O)c1ccc(CCNC2CC(=O)N(Cc3ccccc3)C2=O)cc1 (centres unmarked), CC1(C)c2[nH]c3ccccc3c2C[C@H]2C(=O)N(Cc3ccccc3F)C(=O)N21 is higher in “hERG current change (%, negative = inhibition) at 1uM” value: 6.24% for the first, 19.3% for the second.

Compared with CN(C)/C=C1\C(=O)ON=C1c1ccccc1, CN1CCN(NC(=O)c2cc(-c3ccccn3)nc3ccccc23)CC1 is higher in “hERG current change (%, negative = inhibition) at 1uM” value: 3.76% for the first, 10.3% for the second.

Going from CCN(Cc1ccc2c(c1)OCO2)C(=O)CSc1nc(C)nc2sc(C)c(C)c12 to CN(C)S(=O)(=O)c1cccc(C(=O)OCC(=O)NCc2ccc3c(c2)OCO3)c1, the “hERG current change (%, negative = inhibition) at 1uM” value rises from 4.61% to 7.09%.

Going from Cc1cc(NC(=O)Nc2cccs2)no1 to CCc1noc(C)c1C(=O)Nc1ccccc1N1CCOCC1, the “hERG current change (%, negative = inhibition) at 1uM” value falls from 19.6% to -0.229%.

First: CCOc1ccc(C2N(c3cc(C)on3)C(=O)C3CCCN32)cc1OC (centres unmarked)
Second: COc1ccc(CN(C)C(=O)c2ccc3c(=O)n4c(nc3c2)CCC4)cc1
The “hERG current change (%, negative = inhibition) at 1uM” value of the first is higher: 18.6% for the first, 12% for the second.

Going from O=C(NNC(=O)c1cc(-c2ccccc2)nc2ccccc12)c1csc(N2CCOCC2)n1 to CCn1c2ccccc2c2cc(NC(=O)C3CCN(S(=O)(=O)c4cccs4)CC3)ccc21, the “hERG current change (%, negative = inhibition) at 1uM” value falls from 6.83% to 0.618%.

First: O=C(NNc1c(Cl)cc(Cl)cc1Cl)c1n[nH]c(=O)c2ccccc12
Second: O=C1C(=O)N(c2ccccn2)C(c2ccc(F)cc2)/C1=C(/O)c1ccc(Br)cc1 (centres unmarked)
The “hERG current change (%, negative = inhibition) at 1uM” value of the first is lower: 1.45% for the first, 10.2% for the second.

Compared with CCCn1c(C(C)Nc2nc(-c3cc(Cl)c(N)c(Cl)c3)cs2)nc2cc(Cl)c(N3CCCCC3)cc21 (centres unmarked), COc1ccc(NC(=O)CCS(=O)(=O)c2ccc3c(c2)CCCN3C(C)=O)cc1Cl is lower in “hERG current change (%, negative = inhibition) at 1uM” value: 7.78% for the first, 2.1% for the second.

Compared with COc1ccc(C2C=C(c3ccc(C)c(C)c3)Nc3ncnn32)c(OC)c1OC (centres unmarked), Cc1cc(C)cc(N(CC(=O)NCc2ccco2)S(=O)(=O)c2c(C)noc2C)c1 is lower in “hERG current change (%, negative = inhibition) at 1uM” value: 10.4% for the first, -14.8% for the second.

Compared with CSCc1ccc(C(=O)NCC(c2cccs2)N2CCOCC2)cc1 (centres unmarked), CCc1ccc(/C=N/NC(=O)c2nnn(-c3nonc3N)c2CN2CCOCC2)cc1 is lower in “hERG current change (%, negative = inhibition) at 1uM” value: 5.03% for the first, -2% for the second.

First: CCC(CC)C(=O)Nc1cc(Cl)ccc1C
Second: C=CCNC(=O)c1cc(Cl)ccc1[N+](=O)[O-]
The “hERG current change (%, negative = inhibition) at 1uM” value of the first is lower: 10.1% for the first, 16.8% for the second.

First: C=CC(C)(C)c1cc2cc3ccoc3cc2oc1=O
Second: CCCCCOc1ccc(N2C(=O)C(C)CNC2=S)cc1 (centres unmarked)
The “hERG current change (%, negative = inhibition) at 1uM” value of the first is lower: 7.48% for the first, 9.07% for the second.

Going from COc1ccc(NC(=O)CN2CCOCC2)cc1.O=C(O)C(=O)O to O=C(O)CS(=O)(=O)CC(=O)NCc1cccc(C(F)(F)F)c1, the “hERG current change (%, negative = inhibition) at 1uM” value falls from 16.1% to 14.2%.
